Hit rate of the full screen: of about 52,000 compounds, about 4,300 (8.3%) were called active. Rule as the data show it: active = survival mostly below about 52% (no sharp cut-off); inactive = mostly above about 56%. The list shows a part of the results.
system: DeltatarO mutant; experiment: S. aureus survival, RN4220 and DeltatarO strains – OD600, teichoic acid synthesis inhibitors, primary screen (AID 463173); conditions: S. aureus RN4220 wild type/DeltatarO growth, OD600, 18 h, stronger effect = lower value, screened at 18.75 µg/mL (by protocol)

Row | Compound | survival
1 | Cc1ccc(S(=O)(=O)c2cn(CC(=O)Nc3cccc(Cl)c3)c3ccccc3c2=O)cc1 | inactive: 112%
2 | Cc1cc(C)nc(SCc2nnc(SCC(=O)N3c4ccccc4Sc4ccc(Cl)cc43)o2)n1 | inactive: 80%
3 | O=C(CCn1c(=O)c2cccn2c2cccnc21)NCc1ccccc1Cl | inactive: 85%
4 | O=C(NCC(c1cccnc1)N1CCN(c2ccccc2F)CC1)C(=O)Nc1ccc(F)cc1F (stereo unspecified) | inactive: 53%
5 | COc1cccc(N2CCN(C(=O)C3CCCN(S(=O)(=O)c4cccc5nsnc45)C3)CC2)c1 (stereo unspecified) | inactive: 71%
6 | Cc1ccc(CNC(=O)CCc2c(C)nn(-c3ccc(N4CCOCC4)nn3)c2C)cc1 | inactive: 116%
7 | CCOc1ccc(C(=O)c2cn(CC(=O)Nc3ccc4c(c3)OCO4)c3ccc(OC)cc3c2=O)cc1 | inactive: 104%
8 | COc1ccc(NC(=O)C2CCCCN2)cc1OC (stereo unspecified) | inactive: 94%
9 | CCNC(=O)c1ccc2c(c1)nc1n2CCCCC1 | inactive: 97%
10 | Cc1ccccc1OCc1nc2c3cnn(-c4cccc(F)c4)c3ncn2n1 | inactive: 88%
11 | Cc1c(CNC2CCCCC2)c(C(=O)O)c(C)n1Cc1ccccc1F | inactive: 88%
12 | CC1(C)N=C(SCc2ccc(F)cc2)c2ccccc2N1 | inactive: 107%
13 | O=C(Cn1cc(C(=O)C(F)(F)F)c2ccccc21)N1CCCCCC1 | inactive: 56%
14 | CCOc1ccccc1NC1(c2ccccc2)C(=O)c2ccccc2C1=O | inactive: 93%
15 | CCC(=O)N(Cc1ccco1)c1nc(-c2ccccc2)cs1 | inactive: 81%
16 | CC(=O)N1c2ccc(S(=O)(=O)NCc3ccccc3Cl)cc2CC1C (stereo unspecified) | inactive: 70%
17 | CCCc1nnc(NC(=O)c2cc(=O)c3ccccc3o2)s1 | inactive: 63%
18 | COc1ccc(N2CCN(C(=O)C3CCCN(C(=O)c4cc5sccc5n4C)C3)CC2)cc1 (stereo unspecified) | inactive: 115%
19 | CCCCNC(=O)CN1C(=O)c2cccnc2Sc2ccccc21 | inactive: 72%
20 | CC1=C(C(=O)Nc2cccnc2)C(c2cccc(F)c2)n2nc(SCc3ccccc3F)nc2N1 (stereo unspecified) | inactive: 62%
21 | O=C(CSc1nc(=O)[nH]c2c1CCCC2)NCc1ccccc1Cl | inactive: 124%
22 | COc1ccc(C)cc1NC(=O)c1cc(S(=O)(=O)N2CCOCC2)cn1C | inactive: 79%
23 | O=C(O)CCNc1ccc2c(c1)OCCO2 | inactive: 86%

Row | Compound | survival
24 | O=C1CCCc2nc(N3CCOCC3)sc21 | inactive: 93%
25 | CCNC(=O)c1c(NC(=O)Cc2coc3ccc(CC)cc23)sc2c1CCCC2 | inactive: 79%
26 | CC(=O)N1CCCc2cc(S(=O)(=O)N3CCN(c4ccccc4F)CC3)ccc21 | inactive: 73%
27 | COc1cccc(C2C(C(=O)Nc3ccc(Cl)cc3)=C(C)Nc3nc4ccccc4n32)c1OC (stereo unspecified) | inactive: 126%
28 | Cc1oc2ncn(CC(C)C)c(=O)c2c1C(=O)N(CCN(C)C)Cc1ccccc1 | inactive: 97%
29 | COc1cccc(-n2cnc3scc(-c4cccs4)c3c2=O)c1 | inactive: 87%
30 | CCCCNC(=O)c1ccc2c(c1)N(CC)C(=O)c1ccccc1S2 | inactive: 102%
31 | Cc1ccc2c(c1)N(C(=O)N1CCC(C(=O)NCc3ccccc3C)CC1)CC(C)O2 (stereo unspecified) | inactive: 74%
32 | CCCCNC(=O)c1c(-c2ccccc2)c(-c2ccccc2)nn(C)c1=O | inactive: 46%
33 | Cc1ccc(Cl)cc1N1CCN(C(=O)CN2C(=O)COc3ccc(S(=O)(=O)N4CCCCCC4)cc32)CC1 | inactive: 60%
34 | CCN(Cc1ccccc1)C(=O)c1cc(-c2ccccc2)n[nH]1 | inactive: 91%
35 | COc1ccc(S(=O)(=O)NCCSc2nnnn2-c2ccccc2)cc1OC | inactive: 127%
36 | Cc1c(C)n(Cc2ccccc2)c2ccc(C(=O)N3CCN(c4ccc(F)cc4)CC3)cc12 | inactive: 94%
37 | CC(C)CCNC(=O)c1ccc2c(c1)NC(=O)C(C(C)C)N2 (stereo unspecified) | inactive: 51%
38 | Cc1oc2ccc(O)c(CN3CCOCC3)c2c1C(=O)Nc1cccc(C(F)(F)F)c1 | inactive: 59%
39 | Cn1cnc(S(=O)(=O)N2CCCC(C(=O)NCc3ccc(Cl)cc3)C2)c1 (stereo unspecified) | inactive: 102%
40 | CCN(CC)S(=O)(=O)c1ccc2c(c1)N(CC(=O)N1CCN(c3ccc(OC)cc3)CC1)C(=O)CO2 | inactive: 67%
41 | Cc1ccc(NC(=O)N2CCCC2C(=O)NCC2CCCCC2)cc1 (stereo unspecified) | inactive: 86%
42 | Cc1ccccc1Nc1c(-c2cccc(Cl)c2)nc2ncccn12 | inactive: 92%
43 | COc1cc2[nH]c(=O)n(Cc3ccc(C(=O)N4CCN(c5ccc(Cl)cc5)CC4)cc3)c(=O)c2cc1OC | inactive: 77%
44 | O=C(Nc1cccc(Cl)c1Cl)c1ccc2c(c1)N(Cc1cccc(Cl)c1)C(=O)c1ccccc1S2=O (stereo unspecified) | inactive: 80%
45 | Cc1ccc(C)c(NC(=O)Cn2nc(C)c3nn(-c4ccc(Cl)cc4)c(C)c3c2=O)c1 | inactive: 103%
46 | CCn1c2ccccc2c2cc(CN3CCN(Cc4cc(OC)c(O)c(OC)c4)CC3)ccc21 | active: 43%

Row | Compound | survival
47 | COc1ccc(N2CCN(c3ccc(-c4nc(-c5ccccc5)no4)cc3[N+](=O)[O-])CC2)cc1 | inactive: 74%
48 | COc1ccc(CNC(=O)CCS(=O)(=O)c2cc(Br)cc3c2N(C(C)=O)C(C)C3)cc1 (stereo unspecified) | inactive: 92%
49 | CCOc1ccccc1NC(=O)CCCc1nc(-c2ccccc2Cl)no1 | active: 38%
50 | CCOc1ccc(CCNC(=O)c2cc3c(=O)n(CC)c4ccccc4c3s2)cc1OCC | inactive: 60%
51 | CCc1cccc(NC(=O)CSc2nncn3c2cc2sccc23)c1 | inactive: 58%
52 | CCOc1ccc(CCNC(=O)Cn2c(-c3cccs3)cc3cc(F)ccc32)cc1OCC | inactive: 68%
53 | CCc1cccc(CC)c1NC(=O)Cn1c(=O)c(-c2cc(C)ccc2NC(C)=O)nc2ccccc21 | inactive: 79%
54 | CCc1ccc(CN(Cc2ccco2)c2cnc(S(C)(=O)=O)nc2C(=O)Nc2c(C)cccc2C)cc1 | active: 36%
55 | CCCc1cc(N2CCN(c3ccccc3)CC2)n2cnnc2n1 | inactive: 67%
56 | Cn1c(=NC(=O)c2ccc(S(=O)(=O)N3CCCC3)cc2)sc2cc(F)ccc21 | inactive: 168%
57 | CCc1ccccc1NCc1nnc2n1CCCCC2 | inactive: 94%
58 | Cn1c(CSc2nc3ccccc3s2)nnc1SCC(=O)NCCCN1CCOCC1 | inactive: 87%
59 | O=C1COc2cc(S(=O)(=O)CCC(=O)N3CCN(c4ccccc4F)CC3)c(Cl)cc2N1 | inactive: 87%
60 | Cc1ccccc1CNc1nc(N(C)C)nc2c1cnn2C | inactive: 72%
61 | O=C1CC(Sc2ccccc2)C(=O)N1c1ccccc1 (stereo unspecified) | inactive: 92%
62 | Cc1ccc(NC(=O)C2CCN(S(=O)(=O)c3ccc4[nH]c(=O)ccc4c3)CC2)cc1C | inactive: 73%
63 | CN(c1ccccc1)C(c1ccc(F)cc1)c1nnnn1C1CCCC1 (stereo unspecified) | inactive: 79%
64 | CCCCOc1ccc(C(=O)NCCc2sc(-c3ccc(OC)c(OC)c3)nc2C)cc1 | inactive: 72%
65 | CCOc1ccc(CNC(=O)c2ccc3c(c2)N(CC)CCS3)cc1 | inactive: 74%
66 | O=C(Nc1cccc(O)c1)c1cc2nc(-c3ccc(Br)cc3)cc(C(F)(F)F)n2n1 | inactive: 120%
67 | CC1(C)NCCNC1=O | inactive: 83%
68 | COc1ccc(N2CCN(C(=O)CSc3c4c(nc5ccc(Cl)cc35)CCCC4)CC2)cc1 | active: 35%
69 | CCOc1ccccc1NC(=O)C1CCN(S(=O)(=O)c2cc(Br)cc3c2N(C(C)=O)CC3)CC1 | inactive: 69%

Row | Compound | survival
70 | COc1cccc(CN2CCCN(CC(=O)Nc3ccc4c(c3)OCCO4)S2(=O)=O)c1 | inactive: 74%
71 | COc1cccc(N(Cc2nnc3n2CCCCC3)C(=O)Nc2ccccc2)c1 | inactive: 126%
72 | CCNC(=S)N(Cc1ccccc1)Cc1nc2ccccc2c(=O)[nH]1 | inactive: 45%
73 | Cc1nc2nc(NC(=O)c3ccc(C(C)(C)C)cc3)[nH]n2c(=O)c1Cl | inactive: 98%
74 | CCC(CC)C(=O)Nc1ccc2nc(SCc3ccccc3)sc2c1 | inactive: 81%
75 | COc1ccc2c(CC(=O)Nc3ccc(C)cc3)coc2c1 | inactive: 73%
76 | CC1CCCN(c2ccc(C(=O)NCCc3ccccc3)cn2)C1 (stereo unspecified) | inactive: 84%
77 | Cc1cccc(Nc2ncc(NC(=O)c3cccc(F)c3)c(Nc3cccc(C)c3)n2)c1 | inactive: 72%
78 | COc1cccc(CCNC(=O)c2cnc3sc(N4CCCCCC4)nn3c2=O)c1 | inactive: 84%
79 | Cc1ccc(-n2nc3c(=O)n(CC(=O)NC(C)C)nc(C)c3c2C)cc1 | inactive: 70%
80 | COc1ccc(S(=O)(=O)c2c(Nc3c(C)cccc3C)sc(C(=O)c3ccc4c(c3)OCO4)c2N)cc1 | inactive: 80%
81 | COc1cc(NC(=O)CC2C(=O)N(c3cccc(C)c3)C(=O)N2Cc2ccco2)cc(OC)c1 (stereo unspecified) | inactive: 101%
82 | CCOc1cc(CNC(=O)c2ccccc2NC(=O)c2nsc3ccccc23)ccc1OC | inactive: 82%
83 | CCOc1ccc(NC(=O)Cn2cc(C(=O)c3cccs3)c3ccccc32)cc1 | inactive: 51%
84 | CC(OC(=O)c1cc2sccc2n1C)C(=O)NCC1CCCO1 (stereo unspecified) | inactive: 99%
85 | CCOc1cccc(CC(=O)NCc2ccc3c(c2)CCN3C(=O)c2ccc(F)cc2)c1OCC | inactive: 89%
86 | COc1ccc(NC(=O)CSC2=Nc3ccccc3C3=NC(CC(=O)NCc4ccco4)C(=O)N23)cc1 (stereo unspecified) | inactive: 69%
87 | Cc1nc2c(cnn2-c2ccccc2)c(=O)n1-c1ccccc1 | inactive: 73%
88 | O=C(Cn1c(-c2cccs2)cc2ccccc21)N1CCN(c2ccccc2F)CC1 | inactive: 90%
89 | O=C(CSc1nnc(-c2ccncc2)n1-c1ccccc1)Nc1ccc(Cl)c(Cl)c1 | inactive: 99%
90 | Cc1cc(C)nc(N(C#N)CC(=O)c2ccccc2)n1 | inactive: 114%
91 | Clc1ccc(CCNc2nc3ccccc3c3nc(-c4ccccc4)nn23)cc1 | active: 29%
